Experimental data: PubChem BioAssay AID463173 (ICCB-Longwood Screening Facility, Harvard Medical School, 2010)
About 4,300 (8.3%) of roughly 52,000 compounds were called active. Cut-off read from the data, not from the text of the source: active = survival mostly below about 52% (no sharp cut-off); inactive = mostly above about 56%. The list shows a part of the results.

What follows are compounds tested on DeltatarO mutant (assay: S. aureus survival, RN4220 and DeltatarO strains – OD600, teichoic acid synthesis inhibitors, primary screen (AID 463173)). Conditions: S. aureus RN4220 wild type/DeltatarO growth, OD600, 18 h, stronger effect = lower value, screened at 18.75 µg/mL (by protocol).

SMILES	survival
CCCCN(CC)c1ncnc2c1sc1nc(N3CCOCC3)c3c(c12)CCCC3	active: 35%
Cc1cccn2c(=O)c3cc(C(=O)NCCc4ccc(S(N)(=O)=O)cc4)n(C)c3nc12	inactive: 71%
COc1ccc(OC)c(C2C(C(N)=O)=C(C)Nc3nc(-c4cccc(Cl)c4)nn32)c1 (stereo unspecified)	inactive: 113%
Cc1ccc(-c2ccc(C#N)c(=O)n2CC(=O)N(C)C)cc1	inactive: 80%
CCC(C)NC(=S)N1CCN(C)CC1 (stereo unspecified)	inactive: 67%
COc1ccc(CCNC(=O)CCn2c(=O)c3ccccc3n(CC(=O)Nc3cccc(C)c3)c2=O)cc1OC	inactive: 79%
CC(=O)c1ccc(NC(=O)Cn2c(-n3nc(C)cc3C)nc(C)cc2=O)cc1	inactive: 75%
COc1cc(OC)cc(-c2nnc(SCC(=O)N3CCC(C)CC3)o2)c1	inactive: 100%
Cc1ccc2c(c1)cc1c(=O)n(CC(=O)NCc3ccco3)nc(C)n12	inactive: 84%
O=C1C(c2ccccc2)=C(c2ccccc2)C(=O)N1O	inactive: 107%
Cn1cc(C(=O)O)c(=O)c2cc(S(=O)(=O)N3CCCCC3)ccc21	inactive: 81%
Cc1ccc(CN2C(=O)c3ccccc3S(=O)(=O)c3ccc(C(=O)OCC4CCCO4)cc32)cc1 (stereo unspecified)	inactive: 91%
CCN(C(=O)c1cc(S(=O)(=O)N2CCOCC2)cn1C)c1ccc(OC)cc1	inactive: 83%
CCOc1ccc(C(C)C)cc1S(=O)(=O)Nc1cccc(-c2ccc(N3CCOCC3)nn2)c1	inactive: 87%
CCCC(=O)Oc1c(Sc2ccc(Cl)cc2)c(C)nn1-c1ccccc1	active: 23%
CCOc1nc(NC(=O)NS(=O)(=O)Oc2ccc(Cl)cc2)nc(-c2ccccc2)n1	inactive: 71%
Cc1ccc2c(c1)c1c(c(=O)n(-c3ccccc3C)c(=O)n1Cc1ccccc1F)n2C	inactive: 73%
COc1ccc(NC(=O)CCc2c(C)nc3c(-c4ccccc4)c(C)nn3c2C)cc1Cl	inactive: 85%
Cc1ccc(Cl)cc1NC(=O)Cn1c(=O)oc2cc(S(=O)(=O)N3CCCCCC3)ccc21	inactive: 67%

SMILES	survival
Cn1c(C(=O)NCc2ccc(Cl)cc2)cc2c(=O)n(C)c3ccccc3c21	inactive: 103%
COc1ccc(-c2noc(C(C)NC(=O)c3ccco3)n2)cc1 (stereo unspecified)	inactive: 105%
Cc1ccc(NC(=O)c2ccc(=O)n(CC(=O)Nc3cc(C)cc(C)c3)n2)cc1	inactive: 80%
Fc1ccc(-n2ncc3c(Nc4ccc(Oc5ccccc5)cc4)ncnc32)cc1	inactive: 79%
Cc1cccc2c1-c1sc(C(=O)NCCCN3CCN(c4cccc(Cl)c4)CC3)cc1CO2	inactive: 98%
COc1cccc(C(=O)NC(c2ccc(Cl)cc2)c2cc(Cl)c3cccnc3c2O)c1 (stereo unspecified)	inactive: 89%
FC(F)(F)c1ccc(C2=Nc3ccccc3NC(c3cccs3)=N2)cc1	inactive: 101%
Cc1nc(NC(=O)CSc2nc3cccnc3n2C2CCCCC2)sc1C	inactive: 74%
Cc1ccc(-n2nc(C)c3c(C)cc(=O)n(CC(=O)NCc4ccc(OC(C)C)cc4)c32)cc1	inactive: 98%
O=C(COc1ccc(F)cc1)Nc1cccc(OCc2cc(=O)n3ccccc3n2)c1	inactive: 102%
COc1ccc(Nc2ncc(C(=O)Nc3cc(C)ccc3OC)c3ccccc23)cc1	inactive: 50%
CC(=O)Nc1ccc(NC(=O)CSc2nnc3c4cc(Br)ccc4n(C)c3n2)cc1	inactive: 75%
O=C(O)C1C2C=CC3(CN(C(c4ccccc4)c4ccccc4)C(=O)C13)O2 (stereo unspecified)	inactive: 100%
COC(=O)c1ccc2oc(=O)c(S(=O)(=O)c3ccc(C)cc3)cc2c1	inactive: 95%
CCCC(=O)Nc1cccc(-c2nc3cc(C)c(C)cc3o2)c1C	inactive: 57%
Cc1ccc(CNC(=O)C2CCN(c3nc4ccc(C)cc4[nH]3)CC2)cc1	inactive: 126%
COc1ccc(C(=O)Nc2nccs2)cc1OC	inactive: 79%
Cc1ccc(NC(=O)C(C)Sc2nnc(C3CCCCC3)n2C)cc1 (stereo unspecified)	inactive: 109%
CC(=O)Nc1cccc(-c2nnc(SCC(=O)c3cc([N+](=O)[O-])ccc3Br)o2)c1	inactive: 91%

SMILES	survival
COc1cc(C(c2c(C)[nH][nH]c2=O)c2c(C)[nH][nH]c2=O)ccc1OC(=O)c1ccccc1F	inactive: 68%
S=c1[nH]nc(Cc2ccccc2)n1Cc1ccco1	inactive: 92%
CCCN1CCN(CCCNC(=O)c2cnn(-c3ccc(C)cc3)c2-n2cccc2)CC1	inactive: 117%
CC(=O)c1cccc(Nc2c3c(nc4nc(-c5cccs5)nn24)CCCC3)c1	inactive: 95%
Cc1ccc(C(=O)Oc2ccc(/C=N/NC(N)=O)cc2)cc1	inactive: 91%
O=C(O)/C=C/C(=O)N1CCC(C(=O)c2ccc(F)cc2)CC1	inactive: 97%
CCc1cccc(NC(=O)c2c(C)oc3ncnc(N4CCCCC4)c23)c1	inactive: 54%
CCOC(=O)c1c(NC(=O)c2cc3nc(-c4ccc(OC)cc4)cc(C(F)(F)F)n3n2)sc(C)c1C	inactive: 131%
O=C1CN(C(=O)COc2ccc(Cl)cc2Cl)C(c2ccc(F)cc2)c2cc(F)ccc2N1 (stereo unspecified)	active: 47%
COc1ccc(C(=O)c2oc3ccccc3c2NC(=O)c2nc(SC)ncc2Cl)cc1Cl	inactive: 83%
O=C(Nc1ccc2nc(C3CC3)n(Cc3ccccc3)c(=O)c2c1)C1CC1	inactive: 80%
Cc1ccc2c(c1)c1c(c(=O)n(-c3cccc(Cl)c3)c(=O)n1C)n2C	inactive: 85%
CCSc1ncc(Cl)c(C(=O)Nc2sc(C(C)=O)c(C)c2C(=O)OC)n1	inactive: 72%
COc1cc(OC)c(NC(=O)c2cnc(N3CCCC3)nc2C)cc1Cl	inactive: 90%
COc1ccc(CNC(=O)c2ccc(Sc3ccc(Cl)cc3)c(NC(C)=O)c2)c(OC)c1	inactive: 67%
Cc1ccc(NC(=O)N2CCN(c3nnc(C)c4c(C)n(-c5ccccc5)nc34)CC2)c(Cl)c1	inactive: 97%
CCOc1ccc(-c2cccc(NS(=O)(=O)c3ccc(Cl)s3)c2)nn1	inactive: 92%
CCNc1nc(Oc2ccc(OCC(=O)OC)nn2)nc(N2CCOCC2)n1	inactive: 72%
